Drawing on article PMC5965893, this text covers binding for 1 substance.

Amino acid sequences for entries named in this document (tags omitted). Residues count along the entry.
UniProt Q00987: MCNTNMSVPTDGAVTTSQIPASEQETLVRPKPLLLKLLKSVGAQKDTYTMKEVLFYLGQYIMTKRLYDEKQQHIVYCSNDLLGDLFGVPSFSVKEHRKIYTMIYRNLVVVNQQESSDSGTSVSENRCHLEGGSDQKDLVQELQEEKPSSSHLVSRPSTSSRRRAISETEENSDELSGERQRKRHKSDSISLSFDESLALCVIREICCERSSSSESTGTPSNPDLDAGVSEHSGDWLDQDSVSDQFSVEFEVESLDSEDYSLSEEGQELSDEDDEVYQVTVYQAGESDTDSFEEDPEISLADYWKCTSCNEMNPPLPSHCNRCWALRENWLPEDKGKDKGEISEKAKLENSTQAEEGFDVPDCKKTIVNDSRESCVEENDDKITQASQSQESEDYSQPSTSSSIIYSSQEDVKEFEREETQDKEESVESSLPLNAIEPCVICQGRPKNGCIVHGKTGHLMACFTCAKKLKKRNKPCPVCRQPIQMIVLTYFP
UniProt Q16288, residues 496-641: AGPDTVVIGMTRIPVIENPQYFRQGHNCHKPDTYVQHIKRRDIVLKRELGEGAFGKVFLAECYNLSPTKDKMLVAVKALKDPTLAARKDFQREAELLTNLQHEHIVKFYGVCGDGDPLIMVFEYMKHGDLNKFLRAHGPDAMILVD

This experiment addresses endogenous MDM2 (human (endogenous in SHEP)) (UniProt Q00987). Briefly: proximity ligation; DuoLink PLA on SHEP cells fixed in 4% PFA and permeabilised; pairs of primary antibodies (anti-GFP or anti-Flag for the TrkC constructs; pan-importin, anti-Hey1 or anti-MDM2 for endogenous proteins); red spots counted per cell.

Results are given in words; binding and its absence hold for the method and conditions named. Binding seen in cells or lysates may run through a third protein.

“TrkC-KF-Flag (from UniProt Q16288 496-641) (domain or fragment)”: the binding entry is on record as “no binding”.
